# From the supplement of paper PMC3334620
# Over roughly 33,000 sequences, “E-score (-0.5 to 0.5)” has its median near -0.043; the highest 2% begin near 0.37. This is one part of the list.
# Target: T1, Upc2 (UniProt Q12151)
# T1 sequence: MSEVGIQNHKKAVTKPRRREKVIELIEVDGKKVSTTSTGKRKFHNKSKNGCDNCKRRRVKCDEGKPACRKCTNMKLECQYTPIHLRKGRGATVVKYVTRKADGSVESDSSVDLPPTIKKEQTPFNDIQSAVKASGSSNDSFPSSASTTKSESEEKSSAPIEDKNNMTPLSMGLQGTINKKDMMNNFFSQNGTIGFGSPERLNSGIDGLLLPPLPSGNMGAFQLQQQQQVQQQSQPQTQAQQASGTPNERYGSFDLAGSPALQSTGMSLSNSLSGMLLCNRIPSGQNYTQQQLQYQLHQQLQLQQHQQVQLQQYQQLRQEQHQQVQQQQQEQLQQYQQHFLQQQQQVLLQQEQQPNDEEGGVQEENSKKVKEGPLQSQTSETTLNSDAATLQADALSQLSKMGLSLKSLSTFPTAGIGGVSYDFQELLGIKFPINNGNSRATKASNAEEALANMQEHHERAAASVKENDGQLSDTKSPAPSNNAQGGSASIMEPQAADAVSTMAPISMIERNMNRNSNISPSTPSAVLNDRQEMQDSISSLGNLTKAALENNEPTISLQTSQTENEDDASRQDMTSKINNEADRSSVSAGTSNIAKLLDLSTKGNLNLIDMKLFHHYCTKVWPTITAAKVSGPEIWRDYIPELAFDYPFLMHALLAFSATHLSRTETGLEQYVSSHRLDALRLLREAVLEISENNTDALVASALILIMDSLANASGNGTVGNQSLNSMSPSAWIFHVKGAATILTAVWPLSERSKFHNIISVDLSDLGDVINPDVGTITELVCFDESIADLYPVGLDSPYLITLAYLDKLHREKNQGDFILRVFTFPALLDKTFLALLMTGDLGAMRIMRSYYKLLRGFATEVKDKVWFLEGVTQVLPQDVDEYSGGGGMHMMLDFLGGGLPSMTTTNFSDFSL
# Experiment: PBM E-score (8-mer binding enrichment) (E-score (-0.5 to 0.5)); higher = stronger / more preferred TF binding; most listed sequences are background and not binding sites
# Details: protein concentration: 200 nM; construct: GST-full length
# Method in brief: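 GST-tagged yeast TFs (full-length or DNA-binding domain) were made by PURExpress in vitro transcription/translation and applied at about 100-200 nM to universal all-10-mer Agilent arrays. The arrays were made double-stranded by primer extension, on fresh or once-stripped slides. Bound protein was detected with fluorescent anti-GST, and scans were normalised with masliner. Each ungapped eight-base word, pooled with its reverse complement, received an E-score (modified Wilcoxon-Mann-Whitney statistic) from the Universal PBM Analysis Suite.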
row,Sequence,PBM E-score
1,CACAGATA,-0.136
2,AGGGACAC,-0.0645
3,GGGGCTTA,-0.215
4,CAGTCTGC,-0.0954
5,AAACACCG,0.137
6,ACGATAGC,0.339
7,AGCGACGC,0.218
8,ACTTTAGA,-0.117
9,ACTTCACG,0.0222
10,GCGGCTCC,-0.169
11,AGCACCCG,-0.0525
12,CCGTGGCA,-0.0847
13,CGCTTAGC,0.287
14,ACGAATAT,0.252
15,GACAGCGA,0.0312
16,GGATCACC,0.00235
17,CTTAATTC,0.0228
18,GGTTATTA,0.0965
19,ATCACCCA,-0.149
20,GTACGACA,0.468
21,GGAATCCC,-0.186
22,ACCTATTG,-0.0668
23,CAACGTGC,-0.0738
24,ATATAGCG,0.0128
25,CTCCGTCC,-0.304

row,Sequence,PBM E-score
1,AGCACCAT,-0.0618
2,AGCTCTAT,-0.126
3,AGGTAAAC,0.331
4,CGTGCAAG,0.13
5,GAATCCAC,-0.0337
6,CATATCCG,0.0703
7,CGCCTTAG,-0.169
8,CTCCACTC,-0.208
9,AACGCCCA,0.0627
10,CAGAAACC,-0.097
11,CACAGGGA,-0.233
12,CGTTCGGA,0.265
13,AGCTGTCA,-0.0571
14,AACGGCTC,0.216
15,ACGCGTGA,0.136
16,ACTGTGGC,-0.123
17,CGTGCGTC,0.102
18,CATTCACC,-0.0198
19,CAAGGCTG,-0.22
20,GGCAGTCA,-0.16
21,AACGTACA,0.266
22,GGTAACTA,0.0556
23,CGGCCGGC,-0.0294
24,CCTAAAAG,0.0297
25,CAGGAAAG,-0.216

row,Sequence,PBM E-score
1,AACGGAGA,0.205
2,ATATCGCG,0.239
3,CCTAGCCC,-0.172
4,AAAGATGT,0.0298
5,GAGGAGCC,-0.164
6,CGTTGATC,0.17
7,CACAGGCA,-0.155
8,CGCGTGAG,-0.0011
9,AGCGAGCT,0.225
10,AGGTTCAC,0.0568
11,AAACTACT,0.0197
12,GACCGGTA,0.00038
13,CAATCTAA,0.00274
14,AGTGTATA,0.211
15,GAGTTCGC,-0.079
16,ACTCCAGG,-0.104
17,GCTAGTAA,-0.105
18,GCAAGAGC,-0.186
19,CACATCCG,-0.0107
20,GAATCCCC,-0.222
21,ACTCAGTC,-0.097
22,GCCAGTCA,-0.158
23,CGATGACG,0.0815
24,CCGATCTC,-0.136
25,CGGTACAG,0.12

row,Sequence,PBM E-score
1,AAGGACCT,-0.0968
2,CGGTTAAG,0.282
3,AGTGAATC,-0.166
4,CTCTCGAC,-0.195
5,GCGATTCA,0.11
6,AGCTGATC,-0.0688
7,AGCATAAT,0.0553
8,GCCCTCTA,-0.147
9,AAAACATG,0.115
10,CAGTTACA,-0.0631
11,ACGCTCAG,0.0359
12,GCAGGGCA,-0.146
13,AATTAGAC,-0.0806
14,ATGACTAG,-0.097
15,AGGAGCGA,0.222
16,ATTGGTCA,-0.18
17,ATCCGGCA,-0.198
18,CGACGGGA,0.228
19,AGTAGTAA,0.0705
20,AGATATCG,0.0804
21,AGGGACCG,-0.175
22,CACTGTGA,-0.094
23,CTCTTGAA,-0.225
24,TAGTGGCA,-0.0752
25,AAAGGCAG,-0.0656

row,Sequence,PBM E-score
1,CAACGATC,0.11
2,TCAACGGA,0.0819
3,ATCATCGA,-0.176
4,TACGCAAA,0.263
5,ATAGAACG,0.253
6,AGTCGAGA,-0.0448
7,CGTTCATA,0.361
8,CAACCTGA,-0.12
9,CACGATAA,0.074
10,CATGCCGC,0.0567
11,GGTCGGCA,-0.0973
12,AAGAGGCT,-0.257
13,ACATCTTC,-0.077
14,GATCGCGC,0.115
15,TCCCTAGA,-0.106
16,ATTTATCG,0.201
17,CGAGTGCC,-0.0763
18,AACAAGGA,0.0181
19,GGAGCTCC,-0.228
20,CCTGGGCG,-0.186
21,ACCGTTAA,0.289
22,GAGTTTGA,-0.0818
23,ACGGAAAC,0.26
24,ACCTGGCC,-0.207
25,CATATACG,0.463

row,Sequence,PBM E-score
1,CCGGGTCA,-0.0975
2,CACATTTA,-0.083
3,CAGAAAGA,-0.00388
4,TGAAATCA,-0.103
5,GCATACTA,-0.132
6,CCTACCAG,-0.143
7,CCTAGCTA,-0.232
8,GAACCCCA,-0.113
9,CGACTAAC,0.0797
10,ATACAACC,0.0511
11,ACCGATGA,0.0812
12,CCCATTCA,-0.145
13,ACTTGAAA,-0.069
14,AGGTTGTG,-0.275
15,ATGGCCGC,-0.101
16,CACGTAGA,0.0732
17,CGTTTGGC,0.409
18,CTCGCATC,0.247
19,AGCATGAA,-0.136
20,ATGACCTC,-0.0652
21,AATGGTCT,-0.213
22,ACTCAGCG,-0.141
23,GGGCAAGA,0.0892
24,CACGGCTC,-0.128
25,GCGTACAA,0.324

row,Sequence,PBM E-score
1,ACTATGCG,0.293
2,CTTCAGAC,-0.123
3,CTATGTTA,-0.113
4,CCGTTTAC,0.451
5,CATGTACA,-0.00834
6,GATTAGAA,0.0377
7,GTAGCCAC,-0.15
8,GATGATGA,-0.118
9,AAGATTTG,-0.0159
10,CAACGTCC,-0.176
11,AAGATTGT,0.00873
12,ATTACTCC,-0.134
13,AGGGGAAA,-0.215
14,AACTGCGC,-0.0647
15,CCGTGACG,-0.18
16,AATTGGCG,0.105
17,CCTCGTTA,0.399
18,GCGGCTTA,-0.188
19,GTCAAATA,0.0795
20,CTTATATA,0.207
21,CGCACTTC,-0.0494
22,AAATTACA,0.179
